# The other results are listed elsewhere or left out.
# Assays:
# Assay in all cases: glycan array binding signal (z-score within array); higher = stronger binding
# Details in all cases: glycan notation: IUPAC condensed, linker removed
# [1] = target: GlcNAc(b1-3)Gal(b1-4)GlcNAc(b1-2)Man(a1-3)[GlcNAc(b1-3)Gal(b1-4)GlcNAc(b1-2)Man(a1-6)]Man(b1-4)GlcNAc(b1-4)[Fuc(a1-6)]GlcNAc
# In short: (§1)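 Glycan array data were curated from 3228 arrays in the Consortium for Functional Glycomics database and kept only where the protein sequence was available. Glycan names were converted to IUPAC-condensed notation, and columns mapping to the same glycan were averaged. The binding signal is a within-array Z-score, averaged across arrays of the same protein sequence at different concentrations or buffers and across linkers. Negative Z-scores can be read as non-binding.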
# [2] = target: GlcNAc(b1-3)Gal(b1-4)GlcNAc(b1-2)[GlcNAc(b1-3)Gal(b1-4)GlcNAc(b1-6)]Man(a1-6)[GlcNAc(b1-3)Gal(b1-4)GlcNAc(b1-2)Man(a1-3)]Man(b1-4)GlcNAc(b1-4)GlcNAc
# In short: as §1
# [3] = target: GlcNAc(b1-3)Gal(b1-4)GlcNAc(b1-3)Gal(b1-4)GlcNAc
# In short: as §1
# [4] = target: GlcNAc(b1-3)Gal(b1-4)GlcNAc(b1-3)Gal(b1-4)GlcNAc(b1-2)Man(a1-3)[GlcNAc(b1-3)Gal(b1-4)GlcNAc(b1-3)Gal(b1-4)GlcNAc(b1-2)Man(a1-6)]Man(b1-4)GlcNAc(b1-4)GlcNAc
# In short: as §1
# [5] = target: GlcNAc(b1-3)Gal(b1-4)GlcNAc(b1-3)Gal(b1-4)GlcNAc(b1-2)Man(a1-3)[GlcNAc(b1-3)Gal(b1-4)GlcNAc(b1-3)Gal(b1-4)GlcNAc(b1-2)Man(a1-6)]Man(b1-4)GlcNAc(b1-4)[Fuc(a1-6)]GlcNAc
# In short: as §1
# [6] = target: GlcNAc(b1-3)Gal(b1-4)GlcNAc(b1-3)Gal(b1-4)GlcNAc(b1-2)[GlcNAc(b1-3)Gal(b1-4)GlcNAc(b1-3)Gal(b1-4)GlcNAc(b1-6)]Man(a1-6)[GlcNAc(b1-3)Gal(b1-4)GlcNAc(b1-3)Gal(b1-4)GlcNAc(b1-2)Man(a1-3)]Man(b1-4)GlcNAc(b1-4)[Fuc(a1-6)]GlcNAc
# In short: as §1
# [7] = target: GlcNAc(b1-3)Gal(b1-4)GlcNAc(b1-3)Gal(b1-4)GlcNAc(b1-3)Gal(b1-4)GlcNAc(b1-2)Man(a1-3)[GlcNAc(b1-3)Gal(b1-4)GlcNAc(b1-3)Gal(b1-4)GlcNAc(b1-3)Gal(b1-4)GlcNAc(b1-2)Man(a1-6)]Man(b1-4)GlcNAc(b1-4)GlcNAc
# In short: as §1
# [8] = target: GlcNAc(b1-3)Gal(b1-4)GlcNAc(b1-3)Gal(b1-4)GlcNAc(b1-3)Gal(b1-4)GlcNAc(b1-2)Man(a1-3)[GlcNAc(b1-3)Gal(b1-4)GlcNAc(b1-3)Gal(b1-4)GlcNAc(b1-3)Gal(b1-4)GlcNAc(b1-2)Man(a1-6)]Man(b1-4)GlcNAc(b1-4)[Fuc(a1-6)]GlcNAc
# In short: as §1
# [9] = target: GlcNAc(b1-3)Gal(b1-4)GlcNAc(b1-3)Gal(b1-4)GlcNAc(b1-3)Gal(b1-4)GlcNAc(b1-2)[GlcNAc(b1-3)Gal(b1-4)GlcNAc(b1-3)Gal(b1-4)GlcNAc(b1-3)Gal(b1-4)GlcNAc(b1-6)]Man(a1-6)[GlcNAc(b1-3)Gal(b1-4)GlcNAc(b1-3)Gal(b1-4)GlcNAc(b1-3)Gal(b1-4)GlcNAc(b1-2)Man(a1-3)]Man(b1-4)GlcNAc(b1-4)[Fuc(a1-6)]GlcNAc
# In short: as §1
# [10] = target: GlcNAc(b1-3)Gal(b1-4)GlcNAc(b1-3)Gal(b1-4)GlcNAc(b1-3)Gal(b1-4)GlcNAc(b1-3)Gal(b1-4)GlcNAc(b1-2)Man(a1-3)[GlcNAc(b1-3)Gal(b1-4)GlcNAc(b1-3)Gal(b1-4)GlcNAc(b1-3)Gal(b1-4)GlcNAc(b1-3)Gal(b1-4)GlcNAc(b1-2)Man(a1-6)]Man(b1-4)GlcNAc(b1-4)GlcNAc
# In short: as §1
# [11] = target: GlcNAc(b1-3)Gal(b1-4)GlcNAc(b1-3)Gal(b1-4)GlcNAc(b1-3)Gal(b1-4)GlcNAc(b1-3)Gal(b1-4)GlcNAc(b1-2)Man(a1-3)[GlcNAc(b1-3)Gal(b1-4)GlcNAc(b1-3)Gal(b1-4)GlcNAc(b1-3)Gal(b1-4)GlcNAc(b1-3)Gal(b1-4)GlcNAc(b1-2)Man(a1-6)]Man(b1-4)GlcNAc(b1-4)[Fuc(a1-6)]GlcNAc
# In short: as §1
# [12] = target: GlcNAc(b1-3)Gal(b1-4)GlcNAc(b1-3)Gal(b1-4)GlcNAc(b1-3)Gal(b1-4)GlcNAc(b1-3)Gal(b1-4)GlcNAc(b1-2)[GlcNAc(b1-3)Gal(b1-4)GlcNAc(b1-3)Gal(b1-4)GlcNAc(b1-3)Gal(b1-4)GlcNAc(b1-3)Gal(b1-4)GlcNAc(b1-6)]Man(a1-6)[GlcNAc(b1-3)Gal(b1-4)GlcNAc(b1-3)Gal(b1-4)GlcNAc(b1-3)Gal(b1-4)GlcNAc(b1-3)Gal(b1-4)GlcNAc(b1-2)Man(a1-3)]Man(b1-4)GlcNAc(b1-4)[Fuc(a1-6)]GlcNAc
# In short: as §1
# [13] = target: GlcNAc(b1-3)Gal(b1-4)GlcNAc(b1-3)Gal(b1-4)GlcNAc(b1-3)GalNAc
# In short: as §1
# [14] = target: GlcNAc(b1-3)Gal(b1-4)GlcNAc(b1-3)GalNAc
# In short: as §1
# [15] = target: GlcNAc(b1-3)Gal(b1-4)GlcNAc(b1-3)[GlcNAc(b1-3)Gal(b1-4)GlcNAc(b1-3)]GalNAc
# In short: as §1
# [16] = target: GlcNAc(b1-3)Gal(b1-4)GlcNAc(b1-6)[Gal(b1-3)]GalNAc
# In short: as §1
# [17] = target: GlcNAc(b1-3)Gal(b1-4)GlcNAc(b1-6)[GlcNAc(b1-3)Gal(b1-3)]GalNAc
# In short: as §1
# [18] = target: GlcNAc(b1-3)Gal(b1-4)GlcNAc(b1-6)[GlcNAc(b1-3)]Gal(b1-4)GlcNAc
# In short: as §1
# [19] = target: GlcNAc(b1-3)GalNAc
# In short: as §1
# [20] = target: GlcNAc(b1-3)Man
# In short: as §1
# [21] = target: GlcNAc(b1-3)[GlcNAc(b1-4)][GlcNAc(b1-6)]GlcNAc
# In short: as §1
# [22] = target: GlcNAc(b1-3)[GlcNAc(b1-6)]Gal(b1-4)GlcNAc
# In short: as §1
# [23] = target: GlcNAc(b1-3)[GlcNAc(b1-6)]GalNAc
# In short: as §1
# [24] = target: GlcNAc(b1-4)Gal(b1-4)GlcNAc
# In short: as §1
# [25] = target: GlcNAc(b1-4)GlcNAc
# In short: as §1
# [26] = target: GlcNAc(b1-4)GlcNAc(b1-4)GlcNAc
# In short: as §1
# [27] = target: GlcNAc(b1-4)GlcNAc(b1-4)GlcNAc(b1-4)GlcNAc(b1-4)GlcNAc
# In short: as §1
# [28] = target: GlcNAc(b1-4)GlcNAc(b1-4)GlcNAc(b1-4)GlcNAc(b1-4)GlcNAc(b1-4)GlcNAc
# In short: as §1
# [29] = target: GlcNAc(b1-4)[GlcNAc(b1-6)]GalNAc
# In short: as §1
# [30] = target: GlcNAc(b1-6)Gal(b1-4)GlcNAc
# In short: as §1
# [31] = target: GlcNAc(b1-6)GalNAc
# In short: as §1
# [32] = target: GlcNAc3Prop(b1-4)GlcNAc
# In short: as §1
# [33] = target: GlcNAc6S(b1-3)Gal(b1-4)GlcNAc
# In short: as §1
# [34] = target: Kdn(a2-3)Gal(b1-3)GalNAc
# In short: as §1
# [35] = target: Kdn(a2-3)Gal(b1-3)GlcNAc
# In short: as §1
# [36] = target: Kdn(a2-3)Gal(b1-4)Glc
# In short: as §1
# [37] = target: Kdn(a2-3)Gal(b1-4)GlcNAc
# In short: as §1
# [38] = target: Kdn(a2-3)Gal(b1-4)[Fuc(a1-3)]GlcNAc
# In short: as §1
binder,measurement,setting,value
PpFlo2 (Pichia pastoris) (protein) MGSSHHHHHHSSGLVPRGSHMDDSGNGDNSDTAYGCDITTNAVDGFDATIYQYNANDLRLIRDPTFMSTGYLGRNVLNKISGVTVPGFNIWNPSSRTATVYGVKNVNYYNMVLELKGYFKADVSGDYKLTLSHIDDSSMLFFGKETAFKCCDAGSIPLNEAPTDYSLFTIKPSNQVNSEVISATQYLEAGKYYPVRIVFVNALERARFDFKLTIPSGAVLDDFQNYIYQFGDLDENSCHE,glycan array binding signal (z-score),[1],4.49
same,glycan array binding signal (z-score),[2],3.71
same,glycan array binding signal (z-score),[3],3.53
same,glycan array binding signal (z-score),[4],3.9
same,glycan array binding signal (z-score),[5],6.15
same,glycan array binding signal (z-score),[6],3.27
same,glycan array binding signal (z-score),[7],4.24
same,glycan array binding signal (z-score),[8],7.22
same,glycan array binding signal (z-score),[9],3.81
same,glycan array binding signal (z-score),[10],7.34
same,glycan array binding signal (z-score),[11],7.63
same,glycan array binding signal (z-score),[12],4.18
same,glycan array binding signal (z-score),[13],1.35
same,glycan array binding signal (z-score),[14],2.81
same,glycan array binding signal (z-score),[15],4.33
same,glycan array binding signal (z-score),[16],2.11
same,glycan array binding signal (z-score),[17],3.35
same,glycan array binding signal (z-score),[18],2.77
same,glycan array binding signal (z-score),[19],1.91
same,glycan array binding signal (z-score),[20],3.61
same,glycan array binding signal (z-score),[21],0.061
same,glycan array binding signal (z-score),[22],2.55
same,glycan array binding signal (z-score),[23],2.08
same,glycan array binding signal (z-score),[24],0.414
same,glycan array binding signal (z-score),[25],0.572
same,glycan array binding signal (z-score),[26],0.65
same,glycan array binding signal (z-score),[27],0.471
same,glycan array binding signal (z-score),[28],0.18
same,glycan array binding signal (z-score),[29],0.407
same,glycan array binding signal (z-score),[30],0.578
same,glycan array binding signal (z-score),[31],0.967
same,glycan array binding signal (z-score),[32],0.182
same,glycan array binding signal (z-score),[33],-0.251
same,glycan array binding signal (z-score),[34],-0.29
same,glycan array binding signal (z-score),[35],-0.298
same,glycan array binding signal (z-score),[36],-0.297
same,glycan array binding signal (z-score),[37],-0.299
same,glycan array binding signal (z-score),[38],-0.292

# From the supplement of paper PMC8728848
